# Assay results reported in publication PMC4336329 (PLoS ONE, 2015).
# The campaign covered roughly 310,000 compounds. About 14,000 (4.5%) showed an effect of 50% or more. The effect is printed as a negative number. The list shows a part of the results.
# Target: human ether-à-go-go-related gene (hERG) potassium channel (human, UniProt Q12809)
# Assay: primary screen, population patch clamp on CHO cells stably expressing hERG
# 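Also: peak tail current of the secondary pulse compared with the same well before compound.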
# Chain of human ether-à-go-go-related gene (hERG) potassium channel (Q12809 whole entry, looked up): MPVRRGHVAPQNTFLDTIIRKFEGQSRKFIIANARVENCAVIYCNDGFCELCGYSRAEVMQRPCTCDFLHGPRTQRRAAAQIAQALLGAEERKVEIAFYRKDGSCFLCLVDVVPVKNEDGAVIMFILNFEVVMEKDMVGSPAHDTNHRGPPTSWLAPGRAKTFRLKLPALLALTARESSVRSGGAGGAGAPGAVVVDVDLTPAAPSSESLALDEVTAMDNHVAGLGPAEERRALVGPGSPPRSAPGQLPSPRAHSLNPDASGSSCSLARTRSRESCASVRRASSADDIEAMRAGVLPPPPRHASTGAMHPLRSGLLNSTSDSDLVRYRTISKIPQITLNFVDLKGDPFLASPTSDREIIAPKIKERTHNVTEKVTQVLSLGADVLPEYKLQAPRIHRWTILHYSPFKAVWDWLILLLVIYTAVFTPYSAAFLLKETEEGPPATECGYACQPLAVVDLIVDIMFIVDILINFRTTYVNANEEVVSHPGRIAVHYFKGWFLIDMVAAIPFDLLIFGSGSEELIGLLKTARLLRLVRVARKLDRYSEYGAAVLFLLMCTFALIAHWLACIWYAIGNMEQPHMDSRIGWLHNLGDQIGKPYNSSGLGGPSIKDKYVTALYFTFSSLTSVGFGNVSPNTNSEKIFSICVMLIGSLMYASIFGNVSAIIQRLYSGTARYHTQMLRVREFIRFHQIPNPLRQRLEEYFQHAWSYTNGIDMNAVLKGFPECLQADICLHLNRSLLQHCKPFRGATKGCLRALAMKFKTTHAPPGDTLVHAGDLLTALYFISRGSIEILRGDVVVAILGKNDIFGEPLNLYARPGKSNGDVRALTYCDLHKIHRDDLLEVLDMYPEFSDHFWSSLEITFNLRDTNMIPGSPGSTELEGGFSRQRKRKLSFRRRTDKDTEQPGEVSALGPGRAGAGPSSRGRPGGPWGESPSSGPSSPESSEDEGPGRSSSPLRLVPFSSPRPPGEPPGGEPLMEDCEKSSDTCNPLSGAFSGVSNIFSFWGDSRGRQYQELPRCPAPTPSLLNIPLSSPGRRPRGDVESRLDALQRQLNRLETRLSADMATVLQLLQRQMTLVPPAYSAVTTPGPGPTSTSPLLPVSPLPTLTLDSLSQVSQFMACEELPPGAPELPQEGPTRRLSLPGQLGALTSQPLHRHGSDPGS
row,Compound,"hERG current change (%, negative = inhibition) at 10uM [%]"
1,CCC(C)N(C(=O)COC(=O)C1CCN(S(=O)(=O)c2ccc(C)c(C)c2)CC1)C1CCS(=O)(=O)C1 (stereo not drawn),-33.3
2,CCc1c(C)nc(N2CCN(c3ccc(Cl)cc3)CC2)[nH]c1=O,13.4
3,COc1ccc(C(=O)NCc2cccc(Cl)c2)cc1S(=O)(=O)N1CCOCC1,-36.8
4,CCC(C)(C)c1ccc(OCCCC[n+]2cccc(C)c2C)c(C(C)(C)CC)c1.[Br-],-75.8
5,CCC(=O)N1CCc2cc(Br)cc(S(=O)(=O)CCC(=O)NCc3ccco3)c21,-12.3
6,O=C(Nc1ccc(F)cc1F)NC1CC(=O)N(Cc2ccccc2)C1 (stereo not drawn),5.99
7,C/C(=N\OCC(=O)Nc1ccc(OC(F)(F)F)cc1)c1ccc2c(c1)OCCO2,9.94
8,CC(=O)Nc1ccc(SC[C@H](C)CN2CC[C@H](O)CCC2=O)cc1,11.7
9,CCc1ccccc1NC(=O)c1ccc(S(=O)(=O)NCC2CCCO2)cc1 (stereo not drawn),8.85
10,Cc1ccccc1-c1nc(CN2CCC(C(=O)NCc3cccs3)CC2)c(C)o1,-70.5
11,CCC(CC)c1nnc(NC(=O)C2=NNC(=O)CC2)s1,13.7
12,CC(=O)c1cccc(NC(=O)CCS(=O)(=O)c2cccc3nonc23)c1,-13
13,COc1cc(NC(=O)CN2c3ccccc3CC2C)cc(OC)c1OC (stereo not drawn),9.12
14,Cc1ccc(S(=O)(=O)CNC(=S)c2ccc3ccccc3c2)cc1,-4.27
15,Cc1ccc(-n2c(Cn3c(C)nc4ccccc43)n[nH]c2=S)cc1,10
16,COc1ccc(Cl)cc1NC(=O)CN(C)C(=O)c1cc(-c2cccs2)nn1-c1ccccc1,-4.03
17,Cn1c2c(c3ccccc31)CC/C2=N\O,-1.23
18,O=S(=O)(/N=C(/Sc1ccccc1)c1ccccc1)c1ccccc1,14.2
19,Cc1noc(C)c1COC(=O)c1ccccc1NC(=O)Cc1ccccc1,-30.8
20,CC(OC(=O)c1ccccc1O)C(=O)Nc1ccc(Cl)cn1 (stereo not drawn),-12.4
21,COc1ccc(-c2csc(NC(=O)CSc3n[nH]c(N)n3)n2)cc1,7.57
22,COc1ccc(O)c(C(=O)C2c3ccccc3C(=O)N2c2ccc(C)cc2)c1 (stereo not drawn),2.06

row,Compound,"hERG current change (%, negative = inhibition) at 10uM [%]"
1,Cc1ccc(/C=C/C(=O)Nc2sc3c(c2C#N)CCCC3)o1,10.8
2,Cc1[nH]c2ccccc2c1/C=N/NC(=O)c1cccs1,47.5
3,CCN(CCCNC(=O)c1cn(CC)c2ccc(S(=O)(=O)N(C)C)cc2c1=O)c1cccc(C)c1,-9.72
4,CCCCN1CNC(=S)N(Cc2ccccc2)C1,-0.788
5,O=C(CSc1ccc2nnc(-c3ccccc3)n2n1)NCc1ccco1,-72.2
6,Cc1ccc(C)c(N2CCN(C(=O)c3ccc(CS(=O)Cc4cccc(Cl)c4)o3)CC2)c1 (stereo not drawn),-6.6
7,O=S(=O)(c1ccc(Cl)nc1)N1CCCc2ccccc21,-15.5
8,COc1cc([N+](=O)[O-])ccc1NC(=O)NCc1ccco1,10.9
9,CC(C)CCC(O)(CCC(C)C)C(=O)NN1CCCCC1,6.04
10,O=C(COC(=O)Cn1nnc2ccccc21)NC1CCCC1,13.1
11,Cc1cccc(NC(=O)COc2ccc(Br)cc2)n1,5.02
12,NC(=O)C1CCCN(S(=O)(=O)c2ccccc2)C1 (stereo not drawn),15.4
13,COc1cc2c(cc1OC)C(c1cc3cc(C)ccc3[nH]c1=O)N(C(=O)c1ccco1)CC2 (stereo not drawn),-10.8
14,COc1ccccc1N(CC(=O)NC(C)(C)C)C(=O)CCC(=O)Nc1ccccn1,14.2
15,S=c1[nH]nc(-c2cccnc2)n1Cc1ccccc1,8.29
16,O=C(NCc1cccnc1)Nc1ccc(F)cc1F,-4.58
17,COc1ccc(C(CNC(=O)c2ccco2)N2CCOCC2)cc1 (stereo not drawn),5.49
18,Cc1ccsc1CN(C(=O)c1ccccc1)C1CCS(=O)(=O)C1 (stereo not drawn),2.16
19,O=[N+]([O-])c1cc(S(=O)(=O)[O-])cc([N+](=O)[O-])c1NN(c1ccccc1)c1ccccc1.[K+],12
20,CC(=O)NCCC(=O)Nc1cc(S(=O)(=O)N2CCOCC2)ccc1Oc1ccc(F)cc1,-30.5
21,CS(=O)(=O)c1ccc(C(=O)NC(Cc2ccccc2)c2ccccc2)cc1 (stereo not drawn),3.93
22,CCn1c(O)c(C=Nc2ccccc2)sc1=S,8.74

row,Compound,"hERG current change (%, negative = inhibition) at 10uM [%]"
1,CCN(CC)CCC(C)OC(c1ccccc1)c1ccccc1.O=C(O)CC(O)(CC(=O)O)C(=O)O (stereo not drawn),-52.2
2,COCc1cc(C)nc2sc(C(=O)OC(C)C)c(N)c12,-22.3
3,CC(C)(C)OC(=O)CNC(=O)c1[nH]cnc1C(=O)NC(c1ccccc1)c1ccccc1,-21.4
4,CCCOc1ccc(-c2cc(C(=O)NCC3CCCO3)c3ccccc3n2)cc1 (stereo not drawn),-13.8
5,CN(Cc1ccccc1)C(=O)Cn1c(=O)c2cccn2c2cccnc21,-27
6,NC(=O)c1ccsc1NC(=O)CSc1nnc(Nc2ccccc2)s1,12.8
7,Cc1c(NC(=O)C(C)OC(=O)[C@@H](NC(=O)c2ccccc2)C(C)C)c(=O)n(-c2ccccc2)n1C (stereo partly drawn),-4.56
8,O=C(Nc1ccc(NC(=O)c2cccs2)cn1)c1ccco1,8.01
9,O=C(Nc1ccccc1C(=O)NCc1cccnc1)c1ccccc1F,9.87
10,COC(=O)[C@H](Cc1ccccc1)NC(=O)C1CCN(C(=O)[C@H](C)NS(=O)(=O)c2ccc(C)cc2)CC1,2.58
11,NC12CN3CN(CN(C3)C1)C2.O=C(O)c1cccnc1,9.94
12,COc1ccc(C(=O)Nn2cnnc2)c(OC)c1,5.94
13,COc1ccc(C2=C(C=C(C#N)C#N)C(c3ccccc3C)c3ccccc3O2)cc1OC (stereo not drawn),-0.421
14,O=C(N/C(=C/c1cccs1)C(=O)N1CCOCC1)c1ccccc1,19.2
15,CC1CN(C(=O)c2ccc(Oc3ccccc3)cc2)CC(C)O1 (stereo not drawn),-5.69
16,COc1ccccc1NC(=O)C(=O)NCc1ccncc1,-5.14
17,CN(Cc1ccccc1)C(=O)c1nc2ccccn2c1CNCCn1cccn1,-32.3
18,COc1ccc(-c2cc(C(=O)Nc3ccc(OC)cc3OC)no2)cc1,15.5
19,Cn1c(O)c(C=NCCOc2ccc(Cl)cc2)c(=O)n(C)c1=O,-14.9
20,CC(=O)Cc1nnn(-c2cc(C)on2)n1,36.4
21,COc1cccc(NC(=O)CCC2CCN(C(=O)c3cncs3)CC2)c1,-2.75
22,CN(C)CCC(=O)C(Cc1ccccc1)c1ccccc1.Cl (stereo not drawn),2.91

row,Compound,"hERG current change (%, negative = inhibition) at 10uM [%]"
1,Cc1ccc(C)c(NC(=O)c2ccc[n+](Cc3ccc([N+](=O)[O-])cc3)c2)c1.[Br-],1.79
2,Cc1ccc(CNc2ccc3nnc(-c4ccccc4)n3n2)cc1,15.7
3,CCOc1ccccc1CN1CCN(Cc2ccc(C)o2)CC1CCO (stereo not drawn),-37.9
4,O=C(Cn1cnc([N+](=O)[O-])n1)N/N=C/c1ccc(O)cc1O,9.88
5,Cc1ccc[n+](CC(=O)Nc2cccc([N+](=O)[O-])c2)c1.[Cl-],14.1
6,Cc1ccc(S(=O)(=O)Nc2ccc(NC(=O)CN3CCCCC3)cc2)cc1,-4.54
7,CN(Cc1ccccc1)C(=O)COc1cc(=O)n(C)c2ccccc12,-11.1
8,Cc1c(NC(=O)/C(=C/c2cccs2)NC(=O)c2ccccc2)c(=O)n(-c2ccccc2)n1C,15.4
9,COc1ccc(-n2ccnc2CN2CCCC(CO)(Cc3cccc(OC)c3)C2)cc1 (stereo not drawn),-24.2
10,COC(=O)C1(C)CN(S(=O)(=O)c2ccc(C)cc2)c2cc(OC)ccc2C1=O (stereo not drawn),-16.6
11,Cc1n[nH]c(C)c1S(=O)(=O)N1CCN(c2ccccn2)CC1,3.81
12,COC(=O)c1sc(NC(=O)CCCn2nc([N+](=O)[O-])cc2C)c(C(=O)OC)c1C,-16.3
13,CC(C)OC(=O)Cn1cnc2ccc(Br)cc2c1=O,-8.98
14,COCCNC(=O)/C(C#N)=C/c1cccs1,9.54
15,COC(=O)c1ccc(N2CCN(C(=O)c3ccccc3)CC2)c(NC(C)=O)c1,-39.8
16,OC(COc1ccccc1)CN1CCCC1 (stereo not drawn),14.5
17,CC(C)Oc1ccc(C(CC(=O)O)NC(=O)C2CCCCC2)cc1 (stereo not drawn),12.5
18,COc1ccccc1/C=C/[C@@H]1C[C@H]2CN(Cc3cccc(Cl)c3)C(=O)[C@]23CCCN13,-75.4
19,Cc1cccc(CCNC(=O)c2cccc(NC3=NC4CS(=O)(=O)CC4S3)c2)c1 (stereo not drawn),5.32
20,CC1CCCN(C2=C(NS(=O)(=O)c3ccc(Br)cc3)C(=O)c3ccccc3C2=O)C1 (stereo not drawn),-23.6
21,Cc1ccc(C(=O)Nc2c(N)nc(SCC(=O)Nc3cc(C)on3)[nH]c2=O)cc1,11.8
